Among all 43,000 compounds or so, about 200 (0.47%) were called active. Another 12% or so got no clear call; they are omitted. Calls follow the shape of the dose curve; as a rule, active = well fitted cell-killing curve with a large enough effect; inconclusive = small, poorly fitted or top-dose-only effect, or effect the other way; inactive = flat fitted curve, though single readings scatter. The list shows a part of the results.
% is scaled to controls: 0 for no effect and ±100 for the full control effect.

This assay in a line: Cell viability qHTS assay in S16 Pmp22-F2sN cells. Also: nearly all actives have a fitted effect of over 65% in size. Conditions: S16 Pmp22-F2sN Schwann cells (luciferase reporters placed in the Pmp22 gene) viability, CellTiter-Glo, 24 h; series mostly up to 57.5 µM; activity change, negative = cytotoxicity: at the top concentration. An outline of the steps:
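CellTiter-Glo counter-screen, qHTS, 1536-well. Cells: S16(c9) Pmp22-F2sN, 500-1,000/well in DMEM + 10% FBS. Cpd 23 nL pin transfer, 24 h, 37C/5% CO2. Read: luminescence, CCD imager.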
A general note: Quantitative high-throughput screening tests each substance at several concentrations.
For the compound `CS(=O)(=O)Nc1ccc(-c2nc3ccccc3s2)cc1`, the “activity change, negative = cytotoxicity” value is inactive: 1.61%.
Take `CCOC(=O)c1ccc(NC(=O)CSc2nc(-c3ccc(F)cc3)cc(C(F)(F)F)c2C#N)cc1`: the “activity change, negative = cytotoxicity” value was inactive: 5.23%.
As for `Cc1ccc(NC(=O)Nc2c(C)n(C)n(-c3ccccc3)c2=O)c(Cl)c1`, the “activity change, negative = cytotoxicity” value is inactive: 1.03%.
For the compound `CCOc1ccc(NC(=O)C2=C(C)C(=O)OC23CCC(C)CC3)cc1` (centres undefined), the “activity change, negative = cytotoxicity” value was inactive: 6.58%.
Then `Cc1ccc2c(=O)c(C(=O)c3ccc(F)cc3)cn(CC(=O)NCc3ccccc3)c2n1`, with inactive: -20.8%; and `COc1cccc(Cn2c(CNC(=O)C(C)C)nc3cccnc32)c1`, with inactive: 13.7%; and `COc1ccc(OC)c(S(=O)(=O)NCCc2sc(-c3ccc(C)cc3)nc2C)c1`, with inactive: -11.9%.
On to `COc1ccc(N2CCN(C(=O)c3ccc(C)c(NC(=O)c4nsc5ccccc45)c3)CC2)cc1`, for which the “activity change, negative = cytotoxicity” value is inactive: 4.2%.
For `CCOC(=O)c1c(NC(=O)/C=C/c2ccccc2)sc2c1CCCC2`, the “activity change, negative = cytotoxicity” value was inactive: 24%.
For `COc1ccc(-c2cn3c(n2)sc2cc(C(=O)NCc4ccccc4OC)ccc23)cc1`, the “activity change, negative = cytotoxicity” value was inactive: -1.59%.
In the case of `COC(=O)c1cc(S(=O)(=O)NCC2CCN(Cc3cc(C)ccc3C)CC2)c[nH]1`, the “activity change, negative = cytotoxicity” value is inactive: -18.2%.
Consider `CC(C)(C)OC(=O)N1CCC(c2c(C(=O)NCc3ccccn3)cnn2-c2ccccc2)CC1`, for which the “activity change, negative = cytotoxicity” value was inactive: 13.5%.
For the compound `COc1ccc(C(=O)Nc2ccc(-c3nc4ncccc4o3)cc2)cc1`, the “activity change, negative = cytotoxicity” value was inactive: 6.27%.
On to `CCN(CC)c1ccc(NC(=O)CSc2nnc(C)c(=O)[nH]2)cc1`, for which the “activity change, negative = cytotoxicity” value was inactive: -12.1%.
For the compound `Cc1ccc(S(=O)(=O)c2cnc(SCC(=O)Nc3cc(C)cc(C)c3)nc2N)cc1`, the “activity change, negative = cytotoxicity” value is inactive: 5.87%.
Turning to `Cc1cc(Nc2ccc(C)c(C)c2)n2cnnc2n1`, the “activity change, negative = cytotoxicity” value was inactive: 5.02%.
Regarding `COC(=O)c1ccccc1NC(=O)Cn1cc(S(=O)(=O)Cc2ccccc2F)c2ccccc21`, the “activity change, negative = cytotoxicity” value is inactive: -4.86%.
Turning to `CCOC(=O)c1c(C)oc2nc(C)nc(NCc3ccccc3Cl)c12`, the “activity change, negative = cytotoxicity” value is inactive: 8.21%.
Regarding `CCCCc1ccc(-n2nc3cc(C)c(NC(=O)Cc4ccccc4)cc3n2)cc1`, the “activity change, negative = cytotoxicity” value is inactive: 1.32%.
Regarding `Cc1ccc2cccc(NC(=O)COc3ccccc3[N+](=O)[O-])c2n1`, the “activity change, negative = cytotoxicity” value is inactive: -5.16%.
As for `COC(=O)c1c(-c2cccs2)csc1NC(=O)c1ccc(Cl)cc1`, the “activity change, negative = cytotoxicity” value was inactive: -0.495%.
As for `Cc1cccc(CN2C(=O)c3ccccc3Sc3ccc(C(=O)N4CCCC4)cc32)c1`, the “activity change, negative = cytotoxicity” value was inactive: 1.51%.
With `CCOC(=O)c1c(NC(=O)COc2ccccc2F)sc2c1CCCC2`, the “activity change, negative = cytotoxicity” value is inactive: 6.77%.
As for `CSCCC(NS(=O)(=O)c1ccc2c(c1)oc(=O)n2C)C(=O)NCCc1ccc(C)cc1` (centres undefined), the “activity change, negative = cytotoxicity” value is inactive: 0.0309%.
Take `CCS(=O)(=O)N1CCC(C(=O)NCCC(C)C)CC1`: the “activity change, negative = cytotoxicity” value was inactive: 10.2%.
In the case of `CN(C1CCCCC1)S(=O)(=O)c1ccc2c(c1)c(=O)c(C(=O)NCCc1ccc(Cl)cc1)cn2C`, the “activity change, negative = cytotoxicity” value was inactive: 1.79%.
Regarding `CC(=O)Nc1ccc(S(=O)(=O)NC2(C(F)(F)F)NC(=O)N(c3ccc(C)cc3)C2=O)cc1` (centres undefined), the “activity change, negative = cytotoxicity” value was inactive: 3.07%.
As for `O=C(c1cccc([N+](=O)[O-])c1)N1c2ncnn2C2(CCCCC2)[C@@H]2CCCC[C@@H]21`, the “activity change, negative = cytotoxicity” value is inactive: -12.5%.
In the case of `Cc1ccc(S(=O)(=O)c2cnc(SCC(=O)Nc3ccc4c(c3)OCCO4)[nH]c2=O)cc1`, the “activity change, negative = cytotoxicity” value was inactive: 5.08%.
Under `COc1cccc(OCCCCn2c(-c3ccc(Cl)cc3)nc3ccccc3c2=O)c1` stands inactive: 4.99%; under `Cc1ccc(-c2onc(C)c2C)cc1S(=O)(=O)NCc1ccco1`, inactive: -10.2%; under `O=S(=O)(NCCSc1nnnn1-c1ccccc1)c1ccc(F)cc1`, inactive: -0.553%.
For `CCc1nc2nc(C)cc(Nc3ccc(OC)cc3)n2n1`, the “activity change, negative = cytotoxicity” value was inactive: -19.6%.
Under `Cn1c(SCC(=O)N2CCCc3ccccc32)ncc(C(=O)Nc2ccc(Cl)cc2)c1=O` stands inactive: 8.76%; under `COc1cccc(CN(Cc2ccco2)c2cnc(S(C)(=O)=O)nc2C(=O)Nc2cccc(Cl)c2C)c1`, inactive: -0.312%.
Regarding `COc1ccc(OC)c(NC(=O)c2cc3c(s2)-c2ccccc2SC3)c1`, the “activity change, negative = cytotoxicity” value was inactive: -7.02%.
For `Cc1c(NS(=O)(=O)c2cccc(C(=O)O)c2)c(=O)n(-c2ccccc2)n1C`, the “activity change, negative = cytotoxicity” value is inactive: 1.74%.
For `COc1ccccc1-c1c(C)nn2c(N3CCN(c4cccc(Cl)c4)CC3)cc(C)nc12`, the “activity change, negative = cytotoxicity” value was inactive: 3.12%.
Consider `O=C(CSc1nnc(CNC(=O)c2c(F)cccc2Cl)o1)Nc1ccccc1F`, for which the “activity change, negative = cytotoxicity” value was inactive: -2.06%.
Turning to `CCC(=O)N1c2ccccc2CC1C(=O)NCc1ccccc1C` (centres undefined), the “activity change, negative = cytotoxicity” value was inactive: -9.38%.
As to `COCCCNC(=O)c1cc2n(n1)CCCN(Cc1ccc(C)cc1)C2=O`, the “activity change, negative = cytotoxicity” value is inactive: -4.97%.
`Cc1ccc(C)c(NS(=O)(=O)c2ccc3c4c(cccc24)C(=O)N3)c1`: the “activity change, negative = cytotoxicity” value was inactive: -17.7%.
Turning to `COc1cccc(Cn2nnc3c(=O)[nH]c(C4CCCN(C(=O)c5ccc(C)cc5)C4)nc32)c1` (centres undefined), the “activity change, negative = cytotoxicity” value is inactive: -23.1%.
On to `CS(=O)(=O)c1ncc(N(Cc2ccco2)Cc2ccco2)c(C(=O)Nc2ccccc2Br)n1`, for which the “activity change, negative = cytotoxicity” value is inactive: -8.66%.
Turning to `Cc1ccc(-n2ncc(C(=O)NC3CCCC3)c2C2CCN(C(=O)OC(C)(C)C)CC2)c(C)c1`, the “activity change, negative = cytotoxicity” value was inactive: -10.5%.
With `CC1=C(C(=O)OCc2ccc(C)cc2)C(c2c(Cl)cccc2Cl)CC(=O)N1` (centres undefined), the “activity change, negative = cytotoxicity” value was inactive: 16%.
Turning to `COc1ccc(OC)c(Nc2nc3ccccc3n3c(C)nnc23)c1`, the “activity change, negative = cytotoxicity” value is inactive: 4.32%.
Take `CCOc1ccccc1NC(=O)CC1C(=O)NCCN1C(=O)c1ccc(F)cc1` (centres undefined): the “activity change, negative = cytotoxicity” value is inactive: 1.45%.
Consider `COc1ccc(COC(=O)c2[nH]c3c(c2C)C(=O)CC(c2ccc(OC)c(OC)c2)C3)cc1` (centres undefined), for which the “activity change, negative = cytotoxicity” value was inactive: -2.87%.
